In paper PMC8497055 one finds binding data, which are given here for 9 molecules.

The chains behind the UniProt entries cited, without tags or fusion partners. Where a name states a change or a piece, a line headed by the entry shows the natural chain unless it says otherwise. Residues count along the entry.
UniProt Q9FLP6, residues 2-103: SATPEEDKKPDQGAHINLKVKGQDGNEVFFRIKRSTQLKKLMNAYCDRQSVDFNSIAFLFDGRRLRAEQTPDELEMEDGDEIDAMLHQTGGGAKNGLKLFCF
UniProt P55852, residues 2-100: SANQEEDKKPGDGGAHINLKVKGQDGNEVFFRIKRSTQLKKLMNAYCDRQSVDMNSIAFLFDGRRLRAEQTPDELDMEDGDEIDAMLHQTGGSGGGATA
UniProt Q9SLF3: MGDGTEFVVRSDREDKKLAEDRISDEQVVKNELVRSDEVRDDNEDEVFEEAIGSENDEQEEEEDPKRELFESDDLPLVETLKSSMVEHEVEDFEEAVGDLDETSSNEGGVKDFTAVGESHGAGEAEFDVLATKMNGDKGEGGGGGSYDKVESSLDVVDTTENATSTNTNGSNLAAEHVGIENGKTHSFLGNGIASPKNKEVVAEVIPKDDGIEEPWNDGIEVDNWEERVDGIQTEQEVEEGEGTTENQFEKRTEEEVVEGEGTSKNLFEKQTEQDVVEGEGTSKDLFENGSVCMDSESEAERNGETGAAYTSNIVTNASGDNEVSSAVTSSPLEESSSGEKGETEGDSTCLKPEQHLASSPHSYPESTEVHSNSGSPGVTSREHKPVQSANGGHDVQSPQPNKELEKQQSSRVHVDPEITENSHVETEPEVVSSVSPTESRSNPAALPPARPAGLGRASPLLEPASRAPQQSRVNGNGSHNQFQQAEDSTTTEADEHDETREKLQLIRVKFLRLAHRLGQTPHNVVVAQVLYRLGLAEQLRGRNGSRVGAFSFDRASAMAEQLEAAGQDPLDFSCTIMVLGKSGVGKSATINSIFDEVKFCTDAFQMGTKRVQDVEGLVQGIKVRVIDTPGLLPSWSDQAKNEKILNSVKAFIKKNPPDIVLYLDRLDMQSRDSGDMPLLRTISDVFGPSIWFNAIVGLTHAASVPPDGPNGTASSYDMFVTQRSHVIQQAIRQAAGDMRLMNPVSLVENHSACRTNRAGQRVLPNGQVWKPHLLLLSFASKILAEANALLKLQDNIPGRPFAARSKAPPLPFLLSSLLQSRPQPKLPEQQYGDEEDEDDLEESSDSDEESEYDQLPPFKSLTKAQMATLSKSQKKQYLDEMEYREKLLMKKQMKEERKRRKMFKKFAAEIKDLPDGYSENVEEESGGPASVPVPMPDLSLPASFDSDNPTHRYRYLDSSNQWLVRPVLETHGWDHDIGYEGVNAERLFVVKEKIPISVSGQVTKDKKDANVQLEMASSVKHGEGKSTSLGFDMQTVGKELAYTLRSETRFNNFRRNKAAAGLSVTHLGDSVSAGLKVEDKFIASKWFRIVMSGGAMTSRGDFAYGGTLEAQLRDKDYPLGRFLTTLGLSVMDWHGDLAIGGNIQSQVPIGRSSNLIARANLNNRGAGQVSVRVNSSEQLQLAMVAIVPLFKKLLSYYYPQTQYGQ
UniProt O81283: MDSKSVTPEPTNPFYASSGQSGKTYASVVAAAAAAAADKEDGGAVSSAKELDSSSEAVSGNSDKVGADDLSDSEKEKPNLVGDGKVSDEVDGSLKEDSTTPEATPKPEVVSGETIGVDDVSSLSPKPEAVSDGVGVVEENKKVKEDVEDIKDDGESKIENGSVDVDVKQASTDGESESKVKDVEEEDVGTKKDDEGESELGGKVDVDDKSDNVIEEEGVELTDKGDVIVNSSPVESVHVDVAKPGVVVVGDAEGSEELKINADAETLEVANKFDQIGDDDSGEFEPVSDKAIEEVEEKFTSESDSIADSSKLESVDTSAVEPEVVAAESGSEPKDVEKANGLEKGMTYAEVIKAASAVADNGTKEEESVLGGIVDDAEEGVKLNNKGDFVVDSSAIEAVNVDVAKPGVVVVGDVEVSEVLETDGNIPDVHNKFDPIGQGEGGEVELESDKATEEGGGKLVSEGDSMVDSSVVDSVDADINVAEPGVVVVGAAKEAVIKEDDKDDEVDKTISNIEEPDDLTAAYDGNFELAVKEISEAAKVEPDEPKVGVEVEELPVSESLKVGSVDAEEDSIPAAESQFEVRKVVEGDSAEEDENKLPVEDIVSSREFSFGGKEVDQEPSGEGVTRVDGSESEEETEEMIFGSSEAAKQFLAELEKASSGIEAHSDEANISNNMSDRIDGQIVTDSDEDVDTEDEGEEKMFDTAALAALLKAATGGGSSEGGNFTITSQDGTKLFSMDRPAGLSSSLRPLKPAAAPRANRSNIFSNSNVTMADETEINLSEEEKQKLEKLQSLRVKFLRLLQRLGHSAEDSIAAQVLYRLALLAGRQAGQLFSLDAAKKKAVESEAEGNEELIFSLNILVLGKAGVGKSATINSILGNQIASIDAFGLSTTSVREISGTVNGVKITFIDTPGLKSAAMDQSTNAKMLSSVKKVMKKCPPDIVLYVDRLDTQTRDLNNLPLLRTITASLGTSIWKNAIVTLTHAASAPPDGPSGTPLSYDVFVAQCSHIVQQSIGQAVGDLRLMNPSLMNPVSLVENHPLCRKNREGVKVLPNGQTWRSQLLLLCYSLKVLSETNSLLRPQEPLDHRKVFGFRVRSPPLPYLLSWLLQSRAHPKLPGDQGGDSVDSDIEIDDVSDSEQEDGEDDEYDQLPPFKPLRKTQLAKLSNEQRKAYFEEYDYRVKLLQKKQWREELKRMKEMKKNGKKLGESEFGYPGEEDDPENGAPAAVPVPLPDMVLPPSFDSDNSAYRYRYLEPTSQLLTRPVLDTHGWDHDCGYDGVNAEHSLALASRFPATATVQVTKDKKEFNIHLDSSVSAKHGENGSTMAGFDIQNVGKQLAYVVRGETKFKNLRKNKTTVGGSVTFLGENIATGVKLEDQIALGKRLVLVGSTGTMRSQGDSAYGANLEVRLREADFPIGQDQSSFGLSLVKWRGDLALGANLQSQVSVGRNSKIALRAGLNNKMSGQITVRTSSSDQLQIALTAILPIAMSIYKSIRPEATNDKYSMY
UniProt Q9SVC4, residues 1-35: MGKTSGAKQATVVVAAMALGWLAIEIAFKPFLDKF

Results are given in words; binding and its absence hold for the method and conditions named. In cells and extracts the contact can be indirect. Some results given as binding are weak or reduced against the parent protein; the word gives no strength. For part of these data: Sequences can lack the tags named with a protein.

In test [1] the target is T1, SCE1-cYFP (Arabidopsis thaliana) (UniProt Q42551).
T1 sequence: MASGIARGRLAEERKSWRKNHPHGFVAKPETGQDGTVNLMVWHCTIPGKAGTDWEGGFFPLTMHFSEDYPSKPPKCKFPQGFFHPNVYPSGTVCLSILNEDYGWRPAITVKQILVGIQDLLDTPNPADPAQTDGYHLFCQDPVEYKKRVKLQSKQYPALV
Briefly: split reporter; BiFC: Arabidopsis protoplasts co-transfected with two constructs bearing nYFP and cYFP; overnight incubation; YFP imaged by confocal microscopy.

The target of test [2] is T2, SCE1-YFP (Arabidopsis thaliana) (UniProt Q42551).
T2 sequence: T1 sequence
Put plainly: co-IP; YFP fusion bait transiently expressed in Arabidopsis protoplasts; solubilised in IP buffer with 1% Triton X-100; GFP-Trap (YFP-Trap) beads; four washes; native proteins detected by immunoblotting. (Immunoblotting shows a protein as a band on a membrane.)

Test [3] deals with T3, YFP-SUMO3 (Arabidopsis thaliana) (UniProt Q9FLP5).
T3 sequence: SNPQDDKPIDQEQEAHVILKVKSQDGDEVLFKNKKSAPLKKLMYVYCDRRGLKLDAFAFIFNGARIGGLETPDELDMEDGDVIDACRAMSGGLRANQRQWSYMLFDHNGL
The test is described as above.

Test [4] addresses YFP-SUMO2 (Arabidopsis thaliana) (UniProt Q9FLP6). The description is as above.
Test [5] deals with YFP-SUMO1 (Arabidopsis thaliana) (UniProt P55852). The test is described as above.
Test [6] addresses T3, YFP-SUMO3 (Arabidopsis thaliana). Put plainly: co-IP; YFP fusion bait co-expressed with Toc33-HA in Arabidopsis protoplasts; solubilised in IP buffer with 1% Triton X-100; GFP-Trap (YFP-Trap) beads; four washes; immunoblotting.

On to “nYFP-Toc132 (from UniProt Q9SLF3 1-1206) (receptor)”, for which the binding result in test [1] is “binds”. On the same count and under the same terms, the result for “nYFP-Toc159 (from UniProt O81283 1-1503) (receptor)” reads “binds”. On to “native Toc132 (from UniProt Q9SLF3 1-1206) (receptor)”, for which the binding entry in test [2] is “binds”. For “native Toc159 (from UniProt O81283 1-1503) (receptor)”, the binding entry in test [3] is recorded as “binds”; in test [2] it was “binds”; in test [4], “binds weakly”; in test [5] it was “binds weakly”.

With “ΔOEP7-nYFP (from UniProt Q9SVC4 1-35) (domain or fragment)”, the binding entry in test [1] is on record as “no binding”.

B1: Toc33-HA (receptor, UniProt O23680 1-297)
chain: MGSLVREWVGFQQFPAATQEKLIEFFGKLKQKDMNSMTVLVLGKGGVGKSSTVNSLIGEQVVRVSPFQAEGLRPVMVSRTMGGFTINIIDTPGLVEAGYVNHQALELIKGFLVNRTIDVLLYVDRLDVYRVDELDKQVVIAITQTFGKEIWCKTLLVLTHAQFSPPDELSYETFSSKRSDSLLKTIRAGSKMRKQEFEDSAIAVVYAENSGRCSKNDKDEKALPNGEAWIPNLVKAITDVATNQRKAIHVDKKMVDGSYSDDKGKKLIPLIIGAQYLIVKMIQGAIRNDIKTSGKPL
In the case of B1, in test [6], the binding entry is listed as “binds”.

B2: nYFP-Toc33 (receptor, UniProt O23680 1-297)
chain: B1 chain
Consider B2, for which the binding entry in test [1] was “binds”.

B3: nYFP-Toc34 (receptor, UniProt Q38906 1-313)
chain: MAALQTLREWIGIQQFPPATQSKLLEILGKYKEEDVSSLTVLVMGKGGVGKSSTVNSVIGEKAAAVSTFQSEGLRPTLVSRTRSGFTLNIIDTPGLIEGGYVNDQAINIIKRFLLNMTIDVLLYVDRLDVYRVDDLDRQVVGAITDAFGKEIWKKSALVLTHAQFSPPDGLNYNHFVSKRSNALLKVIQTGAQLKKQDLQGFSIPVILVENSGRCHKNESDEKILPCGTSWIPNLFNKITEISFNGNKAIHVDKKLVEGPNPNERGKKLIPLMFAFQYLLVMKPLVRAIKSDVSRESKPAWELRDSGLASRRS
As to B3, in test [1], the binding entry is given as “binds”.

B4: native Tic110 (protein, UniProt Q8LPR9 52-1016)
chain: SAASSDQLSVSTQAKNPGIHGNKKELTGLQPIVEKMTPPVRLATSAVVLAASLATGYGLGLRLAGSRNIAFGGAAVAGAAGGAVVYALNSAVPEVAAISLHNYVAEFEDPASVTKDDVEKIADRYGVNKGDEAFQAEICDIYCRYVTSVLPTEGQSLKGDEVAKIVKFKNALGIDEPDAAAMHMEIGRRIFRQRLETGEREGDAEQRRAFMRLVYVSALVFGDASSFLLPWKRVLKVTDAQVEIAIRENAKQLYAERLKLVGRDINVENLVDLRKSQLSFKLSDELAEDLFREHTRKVVVENISSALSILKSRTRAAKSLASVVEELEKVLEFNNLLVSLKSHSEADQFARGVGPISLIGDESDFERRMDDLKLLYRAYVTDALSGGRLEENKLVAMSQLRNILGLGKREAEAISVDVTSKSYRKRLANAVSSGDLEAQDSKAKYLQKLCEELHFDAQKAGAIHEEIYRQKLQQCVTDGELSDDNVAALLRLRVMLCIPQQTVDTAHAEICGTIFEKVVRDAISSGVDGYDAETRKSVRKAAHGLRLSRETAMSIASKAVRRVFTNYIRRARAAENRTDSAKELKKMIAFNTLVVTEMVADIKGESSDKAPEEDPVQEKEEDDEDEEWGSLESLRKTRPDKELAEKMGKPGQTEITLKDDLPDRDRIDLYKTYLLYCVTGEVTRIPFGAQITTKRDDSEYLLLNQLGGILGLSSKEIVNIHVGLAEQAFRQQAEVILADGQLTKARVEQLDELQKQVGLPQPQAEKVIKNITTTKMANAIETAVNQGRLNIKQIRELKEANVSLDSMIAVSLREKLFKKTVSDIFSSGTGEFDETEVYQTIPSDLSIDVEKAKRVVHDLAQSRLSNSLVQAVALLRQRNSKGVVLSLNDLLACDKAVPAEPMSWEVSEELSDLYAIYSKSDPKPAPEKVLRLQYLLGIDDSTATALREMEDGALSSAAEEGNFVF
B4: the binding result in test [2] was “no binding”.
